Screen size: about 310,000 compounds; about 14,000 (4.5%) showed an effect of 50% or more. Effects have a minus sign here. The list shows a part of the results.
molecular target: human ether-à-go-go-related gene (hERG) potassium channel (human, UniProt Q12809); assay: primary screen, population patch clamp on CHO cells stably expressing hERG
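Note: peak tail current of the secondary pulse compared with the same well before compound.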

Chain of human ether-à-go-go-related gene (hERG) potassium channel (Q12809 whole entry, looked up): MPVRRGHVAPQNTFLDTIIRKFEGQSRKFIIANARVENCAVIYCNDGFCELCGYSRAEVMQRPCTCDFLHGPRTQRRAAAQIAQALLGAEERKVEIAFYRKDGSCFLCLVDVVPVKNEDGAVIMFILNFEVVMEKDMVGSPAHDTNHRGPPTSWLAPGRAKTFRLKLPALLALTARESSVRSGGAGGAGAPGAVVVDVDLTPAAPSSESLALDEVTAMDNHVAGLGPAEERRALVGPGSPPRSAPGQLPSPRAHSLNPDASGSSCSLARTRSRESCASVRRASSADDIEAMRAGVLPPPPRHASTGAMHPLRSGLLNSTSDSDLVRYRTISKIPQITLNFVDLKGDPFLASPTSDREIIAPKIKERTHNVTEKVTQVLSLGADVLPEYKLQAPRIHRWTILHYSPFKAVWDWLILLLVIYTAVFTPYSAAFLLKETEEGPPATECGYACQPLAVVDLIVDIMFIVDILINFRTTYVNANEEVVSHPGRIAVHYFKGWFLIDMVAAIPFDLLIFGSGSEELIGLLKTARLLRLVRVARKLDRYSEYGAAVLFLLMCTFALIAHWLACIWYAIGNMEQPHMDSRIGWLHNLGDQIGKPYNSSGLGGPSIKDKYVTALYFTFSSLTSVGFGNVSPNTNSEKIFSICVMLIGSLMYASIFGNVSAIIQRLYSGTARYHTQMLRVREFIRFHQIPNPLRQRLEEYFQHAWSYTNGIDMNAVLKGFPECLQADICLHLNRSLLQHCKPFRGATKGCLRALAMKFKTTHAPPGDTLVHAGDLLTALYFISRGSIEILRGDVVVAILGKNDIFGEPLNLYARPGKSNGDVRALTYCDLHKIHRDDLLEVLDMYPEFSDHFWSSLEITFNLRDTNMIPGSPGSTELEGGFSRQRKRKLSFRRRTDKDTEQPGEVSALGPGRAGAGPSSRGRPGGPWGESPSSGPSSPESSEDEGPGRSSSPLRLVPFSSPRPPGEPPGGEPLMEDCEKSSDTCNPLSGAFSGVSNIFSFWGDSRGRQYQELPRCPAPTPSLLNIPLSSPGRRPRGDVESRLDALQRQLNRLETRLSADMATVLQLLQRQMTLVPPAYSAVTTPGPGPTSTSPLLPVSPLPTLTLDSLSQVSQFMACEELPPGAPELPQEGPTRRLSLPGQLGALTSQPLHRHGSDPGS

SMILES | hERG current change (%, negative = inhibition) at 10uM [%]
O=C(c1ccc(OC2CCN(Cc3ccccc3OC(F)F)CC2)cc1)N1CCCC1 | -3.42
CC1CCC(NS(=O)(=O)c2ccc(Cl)nc2)CC1 (centres unmarked) | -12
CCCCN1C(=O)C(=O)N(CC(=O)Nc2cc(Cl)ccc2OC)C1=O | -13.9
CCCOc1cccc(C(=O)NCCNC(=O)c2ccc(C)nc2)c1 | -0.872
COc1ccc(Oc2ccc(/C=C/C(=O)c3ccc(O)cc3)cc2[N+](=O)[O-])cc1 | -0.331
CC(=O)CCc1c(C)nc2ccc(C)cc2c1Cl | -13.8
CCn1cc([N+](=O)[O-])c(=O)c2cc(F)c(N3CCOCC3)cc21 | 24.6
Cc1ccc(S(=O)(=O)N(CC(=O)NN=C2CCN(C)CC2)c2ccc(C(C)C)cc2)cc1 | -21.3
CC(=O)Oc1ccccc1C(=O)Nc1ccccc1C(=O)N1CCCC1 | 25.6
CCc1cc(=O)oc2cc(C)cc(OCC(=O)NC(Cc3ccc(Cl)cc3)C(=O)O)c12 (centres unmarked) | -9.21
CCCOc1ccccc1C1NC(=O)NC(C)=C1C(=O)OCCOC (centres unmarked) | 6.85
CCC(C)Nc1nc(OC(C(F)(F)F)C(F)(F)F)nc(OC(C(F)(F)F)C(F)(F)F)n1 (centres unmarked) | 4.95
CN(c1ccccc1)S(=O)(=O)c1ccc(Cl)c(C(=O)OCC(=O)NCc2ccco2)c1 | -25
Cc1ccsc1C(=O)C1CCCN(Cc2c(C)nn(C(C)C)c2C)C1 (centres unmarked) | -3.49
COc1ccc(-c2nc3c4ccccc4ccn3c2CN2CCOCC2)cc1OC.Cl | -34.5
COc1ccc(S(=O)(=O)N2CCCN(S(=O)(=O)c3ccc(OC)c(C)c3)CC2)cc1C | -7.54
CC(CO)(CO)NCc1ccc(-c2ccccc2)cc1.Cl | -6.2
O=C(Cn1cnc2ccccc2c1=O)Nc1cccc(S(=O)(=O)N2CCCCC2)c1 | -17.5
COc1ccc(C(=O)c2cn[nH]c2-c2cc(C)ccc2O)cc1 | 10.7
O=C(CN1CCCCC1)N1c2ccccc2CCc2ccccc21 | 4.5
COc1ccc2c(c1)c(C(=O)O)c(C)n2C(C)C | 13.3
CCCCNC(=O)CN1C(=O)NC2NC(=O)NC21 (centres unmarked) | 15.2
CCCn1c(N)c(N2CCCCC2)c(=O)n(CC(=O)Nc2ccc(OC(F)(F)F)cc2)c1=O | -5.16

SMILES | hERG current change (%, negative = inhibition) at 10uM [%]
CCOc1ccc(C2NC(=O)Cc3cc(OC)c(OC)cc32)cc1 (centres unmarked) | 16.8
OC(CN1CCCCC1)Cn1c2ccccc2c2cc(Br)ccc21 (centres unmarked) | -33.1
Cc1ccc(C)c(CSc2ncccc2C(=O)O)c1 | 6.29
Cc1nn(C(=O)c2ccco2)c(C)c1Sc1ccc([N+](=O)[O-])cc1 | 20.8
Cc1ccccc1S(=O)(=O)NC1OC(=O)C(Cl)=C1Cl (centres unmarked) | 13.3
COCCNC(=O)c1ccc(Cl)c(Cl)c1 | 1.76
O=C(c1ccc(C(F)(F)F)cc1)c1c[nH]c(C(=O)NCCCn2ccnc2)c1 | -70.4
CCOc1cc(/C=N/N=C(N)N)ccc1OCc1ccc(Cl)cc1 | -19.9
Cc1cccc(C(=O)NCC(=O)OCC(=O)N2CCCCC2)c1 | 11.4
CCOC(=O)c1sc(NS(=O)(=O)c2ccc(NC(C)=O)cc2)nc1C | -6.46
CC1CN(c2nc(-c3ccccc3)nc3ccccc23)CC(C)O1 (centres unmarked) | 9.25
CC(=O)Nc1ccc(S(=O)(=O)N2CCC(N3CCCC3)CC2)cc1 | 13.2
CCN1CCN(C(=O)C(=O)c2cn(CC(=O)N3CCCCCC3)c3ccccc23)CC1 | 11.8
Cn1c2ccccc2c(=O)c2c(=O)n(-c3ccccc3)c(C3CCCCC3)nc21 | 13
Cc1cc(C)cc(NC(=S)NCCc2ccc(S(N)(=O)=O)cc2)c1 | -15.5
CCC(C)(C)C1CCC2(CC1)NC(=O)N(CC(=O)N(C)Cc1ccc3c(c1)OCCO3)C2=O (centres unmarked) | -0.519
CC1CN(C(=O)c2cn3ccccc3n2)CC(C)O1 (centres unmarked) | 6.26
CCOc1ccccc1NC(=O)CC1NCCNC1=O (centres unmarked) | -8.89
CC(=O)Nc1ccc(C(=O)C(Cc2ccccc2)N(C)C)cc1.Cl (centres unmarked) | 19
Cc1cc(NC(=O)c2ccccc2F)n(-c2nc3ccccc3[nH]2)n1 | 9.75
CCCNC(=O)C1CNc2ccccc2O1 (centres unmarked) | 8.85
O=C(Nc1ccc(F)cc1)c1ccc2nsnc2c1 | -10
O=C(Oc1ccc(F)cc1)N1CCOCC1 | 2.9

SMILES | hERG current change (%, negative = inhibition) at 10uM [%]
CCCn1nc(NS(=O)(=O)c2cccc3nonc23)c2cc3cc(C)ccc3nc21 | -4.63
Cc1nn(Cc2ccccc2)c(C)c1NS(=O)(=O)c1ccccc1 | 1.4
Cc1nn(Cc2ccc([N+](=O)[O-])cc2)c(=O)n1-c1c(F)cccc1F | -23.5
Cc1ccc(CNC(=O)CCC(=O)Nc2nnc(C(C)C)s2)cc1 | 21
CCCc1cc2c(OC(=O)CC)c(-c3ccc(C(=O)OCC)o3)c(=O)oc2cc1OC | -2.16
COc1cc(-c2nnc(SCC(=O)O)n2-c2ccccc2)cc(OC)c1OC | 32.1
N#C/C(=C\c1ccc(O)c(O)c1)C(=O)Nc1cccc2ncccc12 | 14.6
Cc1ccc(S(=O)(=O)Nc2ccc3c(c2)CCC3)cc1 | 3.99
O=C(Cn1cnc2c(nnn2Cc2ccccc2)c1=O)NCc1ccco1 | -0.421
CCOC(=O)Cc1csc(N/N=C\c2ccc(N(C)C)cc2)n1 | 8.64
c1ccc(N2CCN(c3c4c(nc5ncnn35)CCC4)CC2)cc1 | -42.5
CCOC(=O)C1=NN(c2ccccc2C)C2=NC(C)=C(C(=O)OC)C(c3cccc(OC)c3)N12 (centres unmarked) | 5.01
CC(C)N(Cc1nc(-c2ccccc2)no1)C(=O)COc1ccccc1 | -34
CC(C)C(=O)Nc1ccc(Sc2ccc(F)cc2)cc1 | -3.48
O=C(Nc1ccc2c(c1)CCC2)C1CCN(c2ncccn2)CC1 | 20.6
CCCC1=C(C(=O)OCC)C(c2ccc(O)cc2)n2ncnc2N1 (centres unmarked) | 5.09
Nc1nc(NS(=O)(=O)c2ccc(Cl)cc2)nn1-c1ccccc1 | -9.32
Cc1ccc(Cn2nnnc2CN2CCC(NC(=O)C(C)(C)C)CC2)cc1.Cl | 0.395
CCOC(=O)c1sc(NC(=S)NC(=O)C2CCCC2)cc1C | 7.72
COC(=O)c1ccc(S(=O)(=O)N2C3CCC2CC(NC(=O)C2CC2)C3)cc1 (centres unmarked) | -1.57
Cc1ccc(S(=O)(=O)N2CCN(C(=O)CCC(=O)NCc3ccc(F)cc3)CC2)cc1 | -24
Cc1cccnc1NC1(C(F)(F)F)N=C(c2ccccc2)NC1=O (centres unmarked) | -14.4
Cc1ccc(/C=C/C(=O)NCCc2cccc(Cl)c2)o1 | -31.1

SMILES | hERG current change (%, negative = inhibition) at 10uM [%]
CC1(C)C2([N+](=O)[O-])CN3CN(C2)CC1([N+](=O)[O-])C3 | 13.1
O=C(Cc1ccc([N+](=O)[O-])cc1)OCc1c(F)cccc1Cl | 13.4
O=c1[nH]c(CN2CCN(c3ccc(O)cc3)CC2)nc2scc(-c3ccc(Cl)cc3)c12 | -10.7
Cc1ccc(CN2CCN(Cc3ccc(OC(C)C)cc3)CC2CCO)o1 (centres unmarked) | -35.5
CCCCc1ccc(C(=O)NC(C(=O)O)C(C)C)cc1 (centres unmarked) | 14.3
CCOC(=O)N1CCN(S(=O)(=O)c2ccc(OC)cc2)CC1 | -4.57
Cc1ccc2nc(Cl)c3nnnn3c2c1 | 1.02
COc1ccc(C)cc1NC(=O)Nc1cccc(C(=O)O)c1 | 13.5
Cl.NC(N)=NCCCC(NC(=O)c1ccccc1)C(=O)Nc1ccc([N+](=O)[O-])cc1 (centres unmarked) | -2.35
COc1ccc(/C=N/n2c(N)c(S(=O)(=O)c3cccs3)c3nc4ccccc4nc32)cc1OC | 14.3
CCOC(=O)C1CCCN(c2cc(=O)n(Cc3ccc(F)cc3)c(=O)[nH]2)C1 (centres unmarked) | -21.6
CCCOc1ccc(CCc2n[nH]c(=S)n2-c2ccccc2)cc1 | 8.66
Cc1ccc(NC(=O)c2sc3ncn(CC(=O)N4CCN(c5ccccn5)CC4)c(=O)c3c2C)cc1Cl | -7.77
CCOC(=O)CSc1nc(C)cc2c1C(=O)OC2 | -1.31
Cc1cc(C(=O)O)ccc1N=Cc1c(O)ccc2ccccc12 | 8.08
c1ccc(Oc2ncnc3sccc23)cc1 | 21.7
CC1(c2nnc(-c3cccc(Cl)c3)o2)CC(c2ccccc2Br)=NO1 (centres unmarked) | -3.78
Cc1ccc(OCc2cc(C(=O)N(C)Cc3cnc4ccccn34)no2)cc1C | -41.6
COC1CCCN(C(=O)c2ccc3nc(Cc4cccc(Cl)c4)oc3c2)C1 (centres unmarked) | -13.1
O=C(NC(=S)Nc1ccc(N2CCCCC2)c(Cl)c1)c1ccc2c(c1)OCCO2 | 20.2

Source: publication PMC4336329 (PLoS ONE, 2015)
